Assay results published in PubChem BioAssay AID1240 (Sanford-Burnham Center for Chemical Genomics, 2008).
About 800 (1.6%) of roughly 50,000 compounds showed an effect of 50% or more. Some of the results follow.

Target: Bcl-2-like protein 10 (Homo sapiens) (UniProt Q9HD36)
Test: Phenotype converters, Bcl-B/TR3 peptide binding displacement, primary biochemical FP (AID 1240);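 also: 0% = Bcl-B with tracer peptide and DMSO and 100% = tracer peptide lacking Bcl-B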
Conditions: GST-Bcl-B / FITC-TR3 peptide fluorescence polarization; stronger effect = higher value; compound at 3.75 mg/L

Chain of UniProt Q9HD36 (Q9HD36 whole entry, looked up): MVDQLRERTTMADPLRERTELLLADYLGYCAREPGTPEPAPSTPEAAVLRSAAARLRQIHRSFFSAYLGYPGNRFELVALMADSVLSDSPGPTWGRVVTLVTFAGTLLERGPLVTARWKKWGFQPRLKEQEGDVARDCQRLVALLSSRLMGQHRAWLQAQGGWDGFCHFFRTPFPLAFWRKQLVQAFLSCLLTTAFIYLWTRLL

| SMILES | displacement [%] |
| --- | --- |
| Clc1cccc(-c2ncnn2-c2cccc(Cl)c2)c1 | 10.5 |
| COc1ccc(CC(=O)Nc2cccc(NC(=O)Cc3ccc(OC)cc3)c2)cc1 | 2 |
| CCOC(=O)C1=C(C)N=c2s/c(=C\c3ccc(N(C)C)cc3)c(=O)n2C1c1ccc(OC)c(OC)c1 (centres undefined) | -38.5 |
| O=[N+]([O-])c1cc(-c2nnc(-c3ccccc3)o2)cc([N+](=O)[O-])c1 | 5.9 |
| Cc1c(C(=O)Nc2ccc(S(=O)(=O)Nc3nccs3)cc2)cccc1[N+](=O)[O-] | -5 |
| O=C(N/N=C/c1ccc(-c2ccc(Cl)cc2)o1)c1ccccc1 | 9 |
| O=C(NCC1COc2ccccc2O1)C(c1ccccc1)c1ccccc1 (centres undefined) | 6 |
| N#Cc1c(-c2cc(Br)cs2)c2c(=O)[nH]c(=O)[nH]c2[nH]c1=O | 5 |
| O=C(CN(c1ccc(F)cc1)S(=O)(=O)c1ccccc1)Nc1cccc(Br)c1 | 1 |
| CCOc1cccc(/C=N/NC(=O)COc2ccccc2[N+](=O)[O-])c1O | 3.7 |
| CCOc1ccc(NC(=O)c2ccc(S(=O)(=O)N(C)C)cc2)c([N+](=O)[O-])c1 | 13.2 |
| O=C(CN(c1ccccc1)S(=O)(=O)c1ccccc1[N+](=O)[O-])Nc1ccccc1 | 11.8 |
| CCOC(=O)c1ccc(NC(=O)c2ccc(C(=O)Nc3ccc(C(=O)OCC)cc3)cc2)cc1 | 3.8 |
| O=C1C(Cl)=C(NCc2ccccc2)C(=O)N1c1ccccc1 | 13.3 |
| COc1cccc(NC2=C(Cl)C(=O)N(c3cccc(Cl)c3Cl)C2=O)c1 | 13.3 |
| Cc1onc(-c2ccccc2)c1C(=O)NCc1ccccc1 | -3.4 |
| COc1cc(NC(=O)COc2ccc(C(C)(C)C)cc2)c(C(=O)O)cc1OC | -19.8 |
| COc1ccc(C(=O)c2coc3ccc(O)cc23)cc1 | 5.5 |
| CCOc1ccccc1NC(=O)c1c(NC(=O)c2ccccc2F)sc2c1CCCCC2 | 4.5 |
| O=C(Nc1ccccc1)c1cccc(Cl)c1 | -3.3 |
| O=C(NCC1CCCO1)c1cnn2c1NC(c1ccc(Br)cc1)CC2C(F)(F)F (centres undefined) | 6.5 |
| Cc1ccc2c(c1)C(c1ccccc1Cl)CC(=O)N2 (centres undefined) | -3.4 |
| CC(C)CCCC(C)CCOC(=O)CN1CCOCC1 (centres undefined) | -10.6 |

| SMILES | displacement [%] |
| --- | --- |
| CCOC(=O)c1ccccc1NS(=O)(=O)c1ccc(OC)cc1 | 2.7 |
| CC(C)CN(CC(C)C)S(=O)(=O)c1ccc(C(=O)N2CCOCC2)cc1 | 11.2 |
| COC(=O)c1ccc(Oc2ccc(OC(C)=O)cc2)cc1 | 2.7 |
| COc1ccccc1NC(=O)CSc1nc2ccc(N3C(=O)c4ccccc4C3=O)cc2s1 | 84.2 |
| CCOC(=O)c1c(NC(=O)c2cccc(C)c2)sc(C(=O)Nc2ccccc2F)c1C | -7.4 |
| CC(Oc1cccc(Cl)c1)C(=O)N1CCN(Cc2ccccc2)CC1 (centres undefined) | -4.1 |
| CC1=C/C(=N\N=C2\NC(=O)C(CC(=O)Nc3ccc(C(=O)O)cc3)S2)CC(C)(C)C1 (centres undefined) | 35 |
| O=S(=O)(Nc1ccc(Oc2ccccc2)cc1)c1ccc2ccccc2c1 | 12.6 |
| COc1ccccc1-n1c(C=C2C(=O)N(Cc3ccccc3)c3ccccc32)nc2ccccc2c1=O | -10.8 |
| CC(C)c1ccc(NS(=O)(=O)c2ccc([N+](=O)[O-])cc2)cc1 | -3.8 |
| O=C(Nc1ccccc1C(F)(F)F)c1ccc2ccccc2c1 | -0.5 |
| CCC(CO)N=Cc1c(O)n(-c2c(Cl)cccc2Cl)c2ccccc12 (centres undefined) | -12.6 |
| CCOC(=O)c1c(NC(=O)c2ccc(Cl)c(Cl)c2)sc(C(=O)Nc2ccccc2)c1C | 25 |
| Cc1c(C(=O)Nc2ccc3oc(-c4ccncc4)nc3c2)cccc1[N+](=O)[O-] | -1.3 |
| CCOC(=O)C1=CN(c2ccc(OCC)cc2)C=C(C(=O)OCC)C1c1cccs1 | -4.7 |
| COc1cccc(C2=NN(C(=O)c3ccccn3)C(O)(C(F)(F)F)C2)c1 (centres undefined) | -17.2 |
| Cc1ccc(NC(=O)CCC2CCCC2)nc1 | 12.2 |
| COCCNC(=O)Nc1ccc2nccnc2c1 | 8.7 |
| CCSC1C(C)=C(C)C(=O)N1C(C)(C)c1cc(Cl)cc(Cl)c1 (centres undefined) | 21.2 |
| O=C(Nc1nc2ccccc2[nH]1)C1CC1c1ccccc1 (centres undefined) | -3.3 |
| COC(=O)c1ccc(/C=N/NC(=O)C2CC(=O)N(c3ccc(Cl)cc3)C2)cc1 (centres undefined) | -5.6 |
| NCCC(=O)N1c2ccccc2Sc2ccc(Cl)cc21 | -6.5 |
| Cc1ccc(N2C(=O)NC(=O)/C(=C\c3cccc(C)c3)C2=O)cc1 | -1.5 |

| SMILES | displacement [%] |
| --- | --- |
| COc1cc(C=C2C(=O)OC(C)(C)OC2=O)cc(Br)c1O | 5.9 |
| COc1cc(CN2CCN(C(=O)c3ccc([N+](=O)[O-])cc3)CC2)cc(OC)c1O | -9.1 |
| CCCCN(CCCC)C(=O)c1cccc([N+](=O)[O-])c1 | -17.8 |
| COc1ccc(Nc2ccc([N+](=O)[O-])cc2C(=O)O)cc1 | -4.9 |
| COc1ccc(Br)cc1/C=C/C(=O)NCc1ccccc1 | -7.7 |
| O=C(Nc1ccc(Cl)cc1)c1ccc(Br)o1 | -0.6 |
| Cc1ccc(S(=O)(=O)N/N=C/c2[nH]c3ccccc3c2Cl)cc1 | 14 |
| CN1C(=O)c2ccc(NC(=O)c3ccc(Cl)cc3Cl)cc2C1=O | -12.4 |
| CCCCCCCCNc1nc(OC)nc(OC)n1 | 1.4 |
| COc1ccc(C(=O)Nc2ccccc2)cc1NC(=O)C(C)Oc1ccccc1 (centres undefined) | 2.3 |
| O=C(O)CCCC(=O)Nc1nc(-c2ccc(Cl)c(Cl)c2)cs1 | -12.3 |
| COc1cc(OC)c(OC)cc1C=NNC(=O)Cn1nnc2ccccc21 | -10.1 |
| O=C(NCCCn1ccnc1)C(=O)Nc1ccc(F)cc1 | 10.4 |
| COc1ccc(CNC(=O)COc2ccc(OC)cc2)cc1 | -12.1 |
| N#CCCn1cc(C=O)c(-c2ccc(-c3ccccc3)cc2)n1 | 23.1 |
| Brc1ccccc1C=NN1CCN(Cc2ccccc2)CC1 | 5.6 |
| CCN1C(=O)C(=Cc2ccc(OC)cc2OC)C(=O)NC1=S | 10.3 |
| CCc1ccc(C2C(C(=O)OC3CCCC3)=C(C)NC3=C2C(=O)CCC3)cc1 (centres undefined) | 5.9 |
| COc1ccc(-c2cc(C(=O)Nc3ccccc3OC)c3ccccc3n2)cc1 | 14.2 |
| O=C(Cc1ccccc1[N+](=O)[O-])N1CCN(c2ccccc2)CC1 | 1.6 |
| CC1(C)CC(=O)C2=C(C1)Nc1ccccc1N(C(=S)Nc1ccccc1)C2c1cccc([N+](=O)[O-])c1 (centres undefined) | -6.6 |
| Cn1cnc2cc(NC(=O)c3ccccc3)ccc21 | -4.6 |
| CC(/C=C1\SC(=S)N(c2cccc(C(F)(F)F)c2)C1=O)=C\c1ccccc1 | 2.4 |
